From the supplement of paper PMC10126150
Sequences with one replicate were seen in a single cluster, so their values are uncertain.
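Note: ATP exposure 15 min at 22 °C before imaging.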

Each sequence was assayed on ATP (assay: switch fluorescence ratio, 500 uM ATP over buffer (Cy3 cluster intensity, sum of 5 cycles each) (fold (ratio)); higher = stronger signal-on switching upon ATP binding; sequences stand for … in TCGTCGGCAGCGTCAGATGTGTATAAGAGACAGTTTTTTTTTTTTTTTTTTTTTTTTT…TC). Details: aptamer strand: ATP DNA aptamer (quencher-CACCTGGGGGAGTATTGCGGAGGAAGG + anchor), 100 nM annealed; ATP concentration: 500 uM; one replicate.
Outline: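 Five buffer/ATP imaging cycles were run on Cy3-labelled switching-strand clusters on a modified Illumina MiSeq flow-cell, with NaOH stripping and re-annealing between cycles. In each cycle, clusters annealed to 100 nM quencher-labelled ATP aptamer were imaged in selection buffer, then after 15 min with 500 uM ATP at 22 °C. Per cluster, the fluorescence ratio is summed target-cycle over summed buffer-cycle Cy3 intensity, averaged per switch-domain sequence. Only clusters within 100-1000 RFU were kept.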
TGTCTCGGCA was tested, and the switch fluorescence ratio was 1.06. TGTCTGGTCT was tested, and the switch fluorescence ratio was 1. Sequence TGTGAAGACG has a switch fluorescence ratio of 0.983. Work on TGTGACAGCC yielded a switch fluorescence ratio of 1.04. For TGTGACGGG, the switch fluorescence ratio was 1.01. In the case of TGTGACGGGT, the switch fluorescence ratio was 1.02. TGTGACGTG showed a switch fluorescence ratio of 0.951. For TGTGAGTATA, the switch fluorescence ratio was 0.967. Work on TGTGATCCAA yielded a switch fluorescence ratio of 0.981. TGTGATCGTG gave a switch fluorescence ratio of 1. In the case of TGTGATCTGG, the switch fluorescence ratio was 1.05. TGTGATCTTT showed a switch fluorescence ratio of 0.997. TGTGCCATAT gave a switch fluorescence ratio of 0.985. TGTGCCTCGG gave a switch fluorescence ratio of 0.991. With TGTGCGGAG the switch fluorescence ratio was 1.01. Work on TGTGCGGTCC yielded a switch fluorescence ratio of 1.69. Sequence TGTGCTACTC has a switch fluorescence ratio of 1.07. With TGTGCTCAGC the switch fluorescence ratio was 0.992. With TGTGCTTAAC the switch fluorescence ratio was 0.989. TGTGGATGTT was tested, and the switch fluorescence ratio was 1.03. With TGTGGCCGCG the switch fluorescence ratio was 1.02. In the case of TGTGGGAATG, the switch fluorescence ratio was 0.937. TGTGGGTAAT gave a switch fluorescence ratio of 0.979. For TGTGGTACGC, the switch fluorescence ratio was 0.986. In the case of TGTGGTCGTA, the switch fluorescence ratio was 0.989. TGTGTAACTT gave a switch fluorescence ratio of 1.01. Work on TGTGTAGCGC yielded a switch fluorescence ratio of 0.996. For TGTGTATGTG, the switch fluorescence ratio was 1.03. With TGTGTCGAGG the switch fluorescence ratio was 0.981. TGTGTGTTTC showed a switch fluorescence ratio of 1.04. With TGTGTTGTAC the switch fluorescence ratio was 1.03. With TGTTAAAGGC the switch fluorescence ratio was 0.973. TGTTACACCA gave a switch fluorescence ratio of 1.04. TGTTACGATG was tested, and the switch fluorescence ratio was 0.973. With TGTTACTGAT the switch fluorescence ratio was 1.02. TGTTAGCATA showed a switch fluorescence ratio of 1.03. With TGTTAGTGAA the switch fluorescence ratio was 1.03. In the case of TGTTAGTTA, the switch fluorescence ratio was 0.968. For TGTTATTCCC, the switch fluorescence ratio was 1.07. For TGTTCAAATT, the switch fluorescence ratio was 0.98. Sequence TGTTCATGAT has a switch fluorescence ratio of 1.02. TGTTCTAGGA was tested, and the switch fluorescence ratio was 1.03. For TGTTCTCATT, the switch fluorescence ratio was 1.02. Work on TGTTCTGTTG yielded a switch fluorescence ratio of 1.03. Work on TGTTGAAACT yielded a switch fluorescence ratio of 1.05. With TGTTGATGGC the switch fluorescence ratio was 1. For TGTTGATTCG, the switch fluorescence ratio was 1. Sequence TGTTGCATCT has a switch fluorescence ratio of 0.935. Sequence TGTTGCGTAG has a switch fluorescence ratio of 1. TGTTGGTGAC gave a switch fluorescence ratio of 1.02. TGTTGTCTAC showed a switch fluorescence ratio of 1.02. TGTTGTTATG gave a switch fluorescence ratio of 0.968. TGTTGTTCCC was tested, and the switch fluorescence ratio was 1. In the case of TGTTGTTTT, the switch fluorescence ratio was 1.04. In the case of TGTTTAAAGT, the switch fluorescence ratio was 0.992. TGTTTACTAT was tested, and the switch fluorescence ratio was 1. TGTTTATAGG showed a switch fluorescence ratio of 0.983. With TGTTTCACAT the switch fluorescence ratio was 0.996. For TGTTTGAAAG, the switch fluorescence ratio was 0.968. With TGTTTGATA the switch fluorescence ratio was 0.952. In the case of TGTTTGATAC, the switch fluorescence ratio was 1.1. TGTTTGGATC showed a switch fluorescence ratio of 1.01. With TGTTTTATTA the switch fluorescence ratio was 0.991. Sequence TGTTTTCCT has a switch fluorescence ratio of 1. TGTTTTTA showed a switch fluorescence ratio of 0.998. With TTAAAACCCA the switch fluorescence ratio was 1.39. Work on TTAAAAGG yielded a switch fluorescence ratio of 0.936. For TTAAAAGTA, the switch fluorescence ratio was 0.981. TTAAAAGTCC was tested, and the switch fluorescence ratio was 1.1. TTAAAATCTA was tested, and the switch fluorescence ratio was 1.03. With TTAAAATGAC the switch fluorescence ratio was 1.02. Work on TTAAACTATT yielded a switch fluorescence ratio of 1.02. In the case of TTAAAGAGTC, the switch fluorescence ratio was 1.05. Sequence TTAAAGGCTA has a switch fluorescence ratio of 1. TTAAAGTCTT gave a switch fluorescence ratio of 0.996. Sequence TTAAATACCG has a switch fluorescence ratio of 0.983. Work on TTAAATGGTC yielded a switch fluorescence ratio of 1.05. TTAAATTCAA was tested, and the switch fluorescence ratio was 0.951. Work on TTAAATTGG yielded a switch fluorescence ratio of 1.01. Sequence TTAACAAAGG has a switch fluorescence ratio of 0.982. In the case of TTAACAAGGG, the switch fluorescence ratio was 0.987. With TTAACAGAGG the switch fluorescence ratio was 0.969. In the case of TTAACAGCAA, the switch fluorescence ratio was 1.75. For TTAACATCCG, the switch fluorescence ratio was 0.972. With TTAACATGAC the switch fluorescence ratio was 1.22. Sequence TTAACCATTT has a switch fluorescence ratio of 0.968. TTAACCGGTT showed a switch fluorescence ratio of 1.01. TTAACCTGCA gave a switch fluorescence ratio of 1.59. In the case of TTAACCTTAA, the switch fluorescence ratio was 1.16. For TTAACGACTA, the switch fluorescence ratio was 1.01. Work on TTAACGTAAT yielded a switch fluorescence ratio of 1.29. Sequence TTAACTAGAG has a switch fluorescence ratio of 1.01. For TTAACTCGTT, the switch fluorescence ratio was 0.981. Work on TTAACTGCCA yielded a switch fluorescence ratio of 1.06. TTAACTTGAT gave a switch fluorescence ratio of 1.05. With TTAAGACGCC the switch fluorescence ratio was 1.02. TTAAGACTCT showed a switch fluorescence ratio of 0.974. TTAAGAGTCG gave a switch fluorescence ratio of 1.07. Sequence TTAAGCTGGA has a switch fluorescence ratio of 1.01. TTAAGGAAAT gave a switch fluorescence ratio of 0.988.
